Assay results as given in PubChem BioAssay AID1508623 (National Center for Advancing Translational Sciences (NCATS), 2021).
Out of some 48,000 compounds screened, about 450 (0.94%) were called active. The shares of active, inactive and inconclusive entries below differ from those in the screen. Calls come from the whole dose curve; as a rule, active = well fitted inhibition curve with a large enough effect; inconclusive = small, poorly fitted or top-dose-only effect; inactive = no such curve, though single readings can be large or run the other way. A potency beside an inconclusive call is a rough fit, not a confirmed value.

Assay: Primary qHTS for Identification of Small Molecule Inhibitors of Huntingtin Promoter Activity; note: nearly all actives have a fitted effect of over 50% in size
Conditions: HEK293 HTT promoter firefly luciferase reporter (activity 0% = vehicle and -100% = no light), 24 h; activity change, negative = inhibition: at 57.5 µM (top of the series)
Outline: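 Luminescence was read after Dual-Glo reagent and a 10 min room-temperature incubation. Values were normalized to vehicle (0% activity) and zero RLU (-100% activity). Reporter HEK293 cells had been exposed to compounds (up to 57.5 uM final) for 24 h.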
Potency is the fitted concentration of half-maximal effect; tags give direction and shape of the fitted curve.

SMILES	Potency	activity change, negative = inhibition
CCCCOc1ccc(C(=O)NCCc2csc(-c3cccc(F)c3)n2)cc1	inconclusive: 35.5 µM [inhibitor, single point]	–
COc1ccc(OC)c(CCNC(=O)CCc2cn(Cc3cc(C)ccc3C)c3ccccc23)c1	inconclusive: 35.5 µM [inhibitor, single point]	–
Cc1ccc(Cl)cc1NS(=O)(=O)c1ccc2c(c1)NC(=O)CCS2	–	inactive: -13.5%
Cc1ccc(C)c(NC(=O)Cn2nnc(C(=O)NCc3ccccc3Cl)c2N)c1	inconclusive: 31.6 µM [inhibitor, partial curve, poor fit]	–
COc1ccc(C(=O)N(Cc2cc(OC)c(OC)c(OC)c2)c2ccccn2)cc1	inconclusive: 28.2 µM [inhibitor, partial curve]	–
Cc1cccc(-n2c(SCC(=O)Nc3ccc(C)c(C)c3)nc3n[nH]c(C)c3c2=N)c1	inconclusive: 22.4 µM [inhibitor, single point]	–
Cc1ccc(CNC(=O)c2c(Nc3ccccc3C)sc(C(=O)c3ccc(F)cc3)c2N)cc1	inconclusive: 28.2 µM [inhibitor, partial curve, poor fit]	–
COc1cccc(-c2nn(C)c3sc(C(=O)NCc4ccc(OC)cc4OC)cc23)c1	inconclusive: 15.8 µM [inhibitor, partial curve, poor fit]	–
O=C(CN1CCN(Cc2ccccc2F)C1=O)NCc1ccccc1	–	inactive: 0.0734%
CCc1cnc2c(c1SC(C(C)=O)C(=O)N(C)C)c(=O)n(C)c(=O)n2C (stereo not drawn)	–	inactive: -7.81%
Cc1ccc(CNC(=O)c2c(Nc3c(C)cccc3C)sc(C(=O)c3ccccc3)c2N)cc1	inconclusive: 28.2 µM [inhibitor, partial curve]	–
CN(C)c1ccc(CNC(=O)c2ccc3nc(Cc4ccccc4)oc3c2)cc1	inconclusive: 28.2 µM [inhibitor, partial curve]	–
Cc1cc(C)c(NC(=O)C(=O)NCCc2csc(-c3ccc(F)cc3)n2)c(C)c1	inconclusive: 31.6 µM [inhibitor, partial curve, poor fit]	–
COc1cc(Nc2nc(-c3ccc(OC)c(OC)c3)nc3ccccc23)cc(OC)c1	inconclusive: 25.1 µM [inhibitor, single point]	–
COc1ccccc1Nc1c2c(nc3ccc(NC(=O)c4ccc(N(C)C)cc4)cc13)CCCC2	inconclusive: 28.2 µM [inhibitor, single point]	–
Cc1ccc(-n2c(=O)c3oc4ccccc4c3n(Cc3cccc(F)c3)c2=O)cc1C	inconclusive: 12.6 µM [inhibitor, partial curve, poor fit]	–
CC(C)c1ccc(NC(=O)c2ccc(=O)n(Cc3ccccc3)c2)cc1	inconclusive: 35.5 µM [inhibitor, partial curve, poor fit]	–
Fc1ccc(N2CCN(c3ncnc4onc(-c5ccc(Cl)cc5)c34)CC2)cc1	inconclusive: 22.4 µM [inhibitor, single point]	–
Cc1ccc(N(CC2=NCCN2)c2cccc(O)c2)cc1	inactive	–

SMILES	Potency	activity change, negative = inhibition
COc1ccccc1N(CC(=O)Nc1ccccc1C(F)(F)F)S(=O)(=O)c1ccc(C)cc1	inconclusive: 25.1 µM [inhibitor, single point]	–
Cc1oc2ccc(O)c(CN3CCCCCC3)c2c1C(=O)Nc1cccc(C(F)(F)F)c1	inconclusive: 39.8 µM [inhibitor, single point]	–
COc1ccc(OC)c(NC(=O)C2CCN(S(=O)(=O)c3ccc4c(c3)CC(C)N4C(C)=O)CC2)c1 (stereo not drawn)	inconclusive: 31.6 µM [inhibitor, single point]	–
Cc1cc(Nc2cccc(Cl)c2)nc2ccc(NC(=O)COc3ccc(Cl)cc3)cc12	–	inactive: -2.4%
CCC1CN(C(=O)N2CCC(C(=O)NCc3cccc(F)c3)CC2)c2cc(C)ccc2O1 (stereo not drawn)	inconclusive: 20 µM [inhibitor, single point]	–
CCN(CC)c1ccc(C2C(C(N)=O)=C(C)Nc3nc(SCc4ccccc4Cl)nn32)cc1 (stereo not drawn)	inconclusive: 17.8 µM [inhibitor, partial curve, poor fit]	–
Cc1ccc(NC(=O)c2ccc(C)c(S(=O)(=O)N3CCCCCC3)c2)cc1	inconclusive: 35.5 µM [inhibitor, single point]	–
CCOC(=O)C1=C(CN2CCN(c3ccc(C)cc3C)CC2)NC(=O)NC1c1ccc(OC)cc1 (stereo not drawn)	active: 28.2 µM	–
CCc1ccc(CCOc2ccc(CC3SC(=O)NC3=O)cc2)nc1 (stereo not drawn)	inactive	–
COc1ccc(N2CCN(CC(O)COc3c(OC)cccc3OC)CC2)cc1 (stereo not drawn)	inconclusive: 3.55 µM [inhibitor, partial curve, poor fit]	–
CCc1cccc(C)c1NC(=O)c1cc(S(=O)(=O)N2CCN(c3ccccc3)CC2)ccc1F	inconclusive: 28.2 µM [inhibitor, single point]	–
COc1ccc(OC)c(CNc2ncnc3onc(C)c23)c1	inconclusive: 25.1 µM [inhibitor, single point]	–
Cc1cccc(CCNC(=O)CCc2c(C)nc3c(c(C)nn3-c3ccccc3)c2C)c1	inconclusive: 39.8 µM [inhibitor, single point]	–
CN1C(=O)c2ccccc2Sc2ccc(NC(=O)N3CCN(c4cccc(Cl)c4)CC3)cc21	inconclusive: 25.1 µM [inhibitor, partial curve, poor fit]	–
Clc1ccc(CNc2ncnc3onc(-c4ccc(Cl)cc4)c23)cc1	inconclusive: 39.8 µM [inhibitor, single point]	–
Cc1c(Cl)cccc1Nc1ccccc1C(=O)O	–	inactive: -21%
CCN(c1cc(C)cc(C)c1)S(=O)(=O)c1nnc(NC(=O)c2ccccc2C)s1	inconclusive: 28.2 µM [inhibitor, partial curve]	–
Cc1ccc(N(CC(=O)N2CCN(c3cccc(C)c3C)CC2)S(=O)(=O)c2c(C)nn(C)c2C)cc1	inconclusive: 22.4 µM [inhibitor, single point]	–
Cc1cccc(NC(=O)c2ccc(Cn3nc(N4CCN(c5ccccc5)CC4)ccc3=O)o2)c1C	inconclusive: 17.8 µM [inhibitor, partial curve, poor fit]	–
